These results are taken from publication PMC8814668, “Mechanism of Atg9 recruitment by Atg11 in the cytoplasm-to-vacuole targeting pathway” (The Journal of Biological Chemistry, 2022).

For assay [1], the target named is T1, EGFP-Atg11 (full-length yeast Atg11) (yeast (S. cerevisiae)) (UniProt Q12527).
T1 sequence: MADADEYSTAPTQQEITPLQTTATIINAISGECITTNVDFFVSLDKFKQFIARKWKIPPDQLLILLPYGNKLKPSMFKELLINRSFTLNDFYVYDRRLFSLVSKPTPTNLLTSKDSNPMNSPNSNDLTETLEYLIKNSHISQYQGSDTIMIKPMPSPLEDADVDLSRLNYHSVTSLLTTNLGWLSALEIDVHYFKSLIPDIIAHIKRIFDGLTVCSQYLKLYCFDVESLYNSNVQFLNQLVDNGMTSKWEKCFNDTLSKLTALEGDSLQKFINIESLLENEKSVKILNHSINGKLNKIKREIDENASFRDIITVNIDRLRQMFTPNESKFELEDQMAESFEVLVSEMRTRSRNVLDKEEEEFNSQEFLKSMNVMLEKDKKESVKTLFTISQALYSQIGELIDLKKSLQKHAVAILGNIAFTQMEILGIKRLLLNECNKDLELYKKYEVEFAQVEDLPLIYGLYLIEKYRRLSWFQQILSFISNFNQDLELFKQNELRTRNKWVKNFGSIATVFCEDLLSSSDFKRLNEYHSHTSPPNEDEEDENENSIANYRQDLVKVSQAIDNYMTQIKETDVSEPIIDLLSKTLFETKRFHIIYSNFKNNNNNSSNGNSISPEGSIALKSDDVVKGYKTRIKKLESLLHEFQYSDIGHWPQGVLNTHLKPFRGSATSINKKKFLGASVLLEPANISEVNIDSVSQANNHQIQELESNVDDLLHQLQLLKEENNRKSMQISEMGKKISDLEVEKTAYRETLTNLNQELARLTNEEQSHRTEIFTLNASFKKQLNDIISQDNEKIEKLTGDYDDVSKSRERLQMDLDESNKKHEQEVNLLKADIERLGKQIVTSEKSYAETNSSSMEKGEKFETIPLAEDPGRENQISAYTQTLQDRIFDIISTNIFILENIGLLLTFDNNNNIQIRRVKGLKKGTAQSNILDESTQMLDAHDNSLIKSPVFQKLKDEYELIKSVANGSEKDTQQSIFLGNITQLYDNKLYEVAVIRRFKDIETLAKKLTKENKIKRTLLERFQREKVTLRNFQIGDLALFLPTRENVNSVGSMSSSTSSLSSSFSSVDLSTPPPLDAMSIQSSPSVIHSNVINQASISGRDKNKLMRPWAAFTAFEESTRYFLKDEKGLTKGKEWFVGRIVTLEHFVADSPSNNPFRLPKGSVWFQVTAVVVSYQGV
As to the kind of experiment: ITC; Atg9-NTD (300 to 500 μM, syringe) into EGFP-Atg11 (50 to 100 μM, cell); 25 °C; 20 mM Tris pH 7.4, 300 mM NaCl; single binding site; two replicates; both purified. In general terms: Isothermal titration calorimetry measures the heat released or taken up as one component is titrated into another.

Assay [2] has as its target T1, EGFP-Atg11 (full-length yeast Atg11) (yeast (S. cerevisiae)). As to the kind of experiment: microscopy-based protein–protein interaction (MBPPI) assay; GFP-Trap beads coated with 10 μM EGFP-Atg11, 1 μM Atg9-NTD-(1–255)-mCherry in solution; 20 mM Tris pH 7.4, 300 mM NaCl; room temperature; confocal imaging, mCherry signal normalised to EGFP; both purified.
Assay [3] concerns the target T2, Atg9-M1+2-GFP (S. cerevisiae) (UniProt Q12142).
T2 sequence: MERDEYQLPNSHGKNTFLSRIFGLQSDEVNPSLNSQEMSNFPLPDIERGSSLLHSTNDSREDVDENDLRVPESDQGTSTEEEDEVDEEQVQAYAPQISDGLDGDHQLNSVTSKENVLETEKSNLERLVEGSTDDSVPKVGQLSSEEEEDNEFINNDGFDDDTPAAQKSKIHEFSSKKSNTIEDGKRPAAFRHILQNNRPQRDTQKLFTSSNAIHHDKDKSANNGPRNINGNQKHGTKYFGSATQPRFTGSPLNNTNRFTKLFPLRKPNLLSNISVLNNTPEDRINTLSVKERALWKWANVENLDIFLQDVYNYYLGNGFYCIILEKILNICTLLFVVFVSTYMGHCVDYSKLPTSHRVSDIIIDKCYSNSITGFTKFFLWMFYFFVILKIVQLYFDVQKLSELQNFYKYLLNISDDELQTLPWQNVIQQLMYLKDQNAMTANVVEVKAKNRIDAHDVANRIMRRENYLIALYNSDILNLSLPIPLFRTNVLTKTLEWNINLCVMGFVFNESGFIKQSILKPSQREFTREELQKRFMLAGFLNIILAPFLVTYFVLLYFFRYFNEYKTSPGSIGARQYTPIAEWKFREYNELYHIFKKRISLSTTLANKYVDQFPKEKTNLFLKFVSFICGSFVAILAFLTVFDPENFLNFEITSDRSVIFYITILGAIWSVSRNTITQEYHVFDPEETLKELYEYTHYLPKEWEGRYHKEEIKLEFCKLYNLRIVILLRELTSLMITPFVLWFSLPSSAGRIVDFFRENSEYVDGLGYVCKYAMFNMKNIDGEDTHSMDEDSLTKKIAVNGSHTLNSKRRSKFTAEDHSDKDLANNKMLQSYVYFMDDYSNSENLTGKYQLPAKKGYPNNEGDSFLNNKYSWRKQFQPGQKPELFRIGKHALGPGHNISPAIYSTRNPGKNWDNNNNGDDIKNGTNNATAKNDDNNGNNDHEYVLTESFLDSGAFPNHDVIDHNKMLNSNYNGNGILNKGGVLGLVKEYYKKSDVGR
Put plainly: co-IP; yeast lysates (25 mM Tris-HCl pH 7.4, 150 mM NaCl, 0.2% NP-40) on GFP-trap magnetic agarose beads overnight at 4 °C; Western blot with anti-Atg11 and anti-GFP. Background: A western blot detects proteins with antibodies after separation by electrophoresis.

Assay [4] concerns the target T3, Atg9-GFP, wild type (S. cerevisiae) (UniProt Q12142).
T3 sequence: T2 sequence with A164L, A165F, A188L, A189F
The assay is described as above.

Positions count from the first letter of the chain named. Numbers in names are those of the source. No constants are given. Whether binding was seen depends on the method and setting. For some assays here: Binding seen in cells or lysates may run through a third protein. Some results given as binding are weak or reduced against the parent protein; the word gives no strength. Sequences can lack the tags named with a protein.

B1: Atg9-NTD-(1–255)-mCherry M1 (L164A/F165A) (domain or fragment, UniProt Q12142 1-255)
chain: MERDEYQLPNSHGKNTFLSRIFGLQSDEVNPSLNSQEMSNFPLPDIERGSSLLHSTNDSREDVDENDLRVPESDQGTSTEEEDEVDEEQVQAYAPQISDGLDGDHQLNSVTSKENVLETEKSNLERLVEGSTDDSVPKVGQLSSEEEEDNEFINNDGFDDDTPAAQKSKIHEFSSKKSNTIEDGKRPLFFRHILQNNRPQRDTQKLFTSSNAIHHDKDKSANNGPRNINGNQKHGTKYFGSATQPRFTGSPLNNT
B1: in assay [1], the binding result is listed as “binds weakly”.

B2: Atg9-NTD-(1–255)-mCherry M1+M2 (L164A/F165A/L188A/F189A) (domain or fragment, UniProt Q12142 1-255)
chain: B1 chain with L188A, F189A
For B2, in assay [2], the binding entry was “no binding (tested: 1 μM)”.

B3: Atg9-NTD-(1–255)-mCherry M2 (L188A/F189A) (domain or fragment, UniProt Q12142 1-255)
chain: B1 chain with A164L, A165F, L188A, F189A
As to B3, the binding result in assay [1] was “binds weakly”.

B4: mCh-Atg11 (protein, UniProt Q12527 1-1178)
chain: T1 sequence
Turning to B4, the binding entry in assay [3] is “no binding”; in assay [4], “binds”.
